{"source": "the supplement of paper PMC8728848", "assay_in_all_cases": "glycan array binding signal (z-score within array); higher = stronger binding", "details_in_all_cases": "glycan notation: IUPAC condensed, linker removed", "key": {"[1]": {"target": "Gal(b1-4)GlcNAc(b1-3)Gal(b1-4)GlcNAc(b1-3)[Gal(b1-4)GlcNAc(b1-3)Gal(b1-4)GlcNAc(b1-6)]GalNAc", "summary_of_the_method": "(§1)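 Glycan array data came from 3228 arrays in the Consortium for Functional Glycomics database, and only arrays with an available protein sequence were kept. Glycan names were put into IUPAC-condensed notation, and columns mapping to the same glycan were averaged. The binding signal is a within-array Z-score, averaged across arrays of one protein sequence run at different concentrations or buffers and across linkers. A negative Z-score can be read as non-binding.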"}, "[2]": {"target": "Gal(b1-4)GlcNAc(b1-3)Gal(b1-4)GlcNAc(b1-6)[Gal(b1-3)]GalNAc", "summary_of_the_method": "as §1"}, "[3]": {"target": "Gal(b1-4)GlcNAc(b1-3)Gal(b1-4)[Fuc(a1-3)]GlcNAc(b1-3)Gal(b1-4)[Fuc(a1-3)]GlcNAc", "summary_of_the_method": "as §1"}, "[4]": {"target": "Gal(b1-4)GlcNAc(b1-3)GalNAc", "summary_of_the_method": "as §1"}, "[5]": {"target": "Gal(b1-4)GlcNAc(b1-3)[Fuc(a1-3)GlcNAc(b1-6)]Gal(b1-4)Glc", "summary_of_the_method": "as §1"}, "[6]": {"target": "Gal(b1-4)GlcNAc(b1-3)[Gal(b1-4)GlcNAc(b1-6)]Gal(b1-4)GlcNAc", "summary_of_the_method": "as §1"}, "[7]": {"target": "Gal(b1-4)GlcNAc(b1-3)[Gal(b1-4)GlcNAc(b1-6)]GalNAc", "summary_of_the_method": "as §1"}, "[8]": {"target": "Gal(b1-4)GlcNAc(b1-3)[GlcNAc(b1-6)]Gal(b1-4)GlcNAc", "summary_of_the_method": "as §1"}, "[9]": {"target": "Gal(b1-4)GlcNAc(b1-6)Gal(b1-4)GlcNAc", "summary_of_the_method": "as §1"}, "[10]": {"target": "Gal(b1-4)GlcNAc(b1-6)GalNAc", "summary_of_the_method": "as §1"}, "[11]": {"target": "Gal(b1-4)GlcNAc(b1-6)[Gal(b1-3)]GalNAc", "summary_of_the_method": "as §1"}, "[12]": {"target": "Gal(b1-4)GlcNAc(b1-6)[Gal(b1-3)]GlcNAc", "summary_of_the_method": "as §1"}, "[13]": {"target": "Gal(b1-4)GlcNAc(b1-6)[Gal(b1-4)GlcNAc(b1-3)]GalNAc", "summary_of_the_method": "as §1"}, "Gal(b1-4)GlcNAc6P": {"target": "Gal(b1-4)GlcNAc6P", "summary_of_the_method": "as §1"}, "Gal(b1-6)Gal": {"target": "Gal(b1-6)Gal", "summary_of_the_method": "as §1"}, "Gal3S(b1-3)GalNAc": {"target": "Gal3S(b1-3)GalNAc", "summary_of_the_method": "as §1"}, "Gal3S(b1-3)GlcNAc": {"target": "Gal3S(b1-3)GlcNAc", "summary_of_the_method": "as §1"}, "[14]": {"target": "Gal3S(b1-3)[Fuc(a1-4)]GlcNAc", "summary_of_the_method": "as §1"}, "Gal3S(b1-4)Glc": {"target": "Gal3S(b1-4)Glc", "summary_of_the_method": "as §1"}, "Gal3S(b1-4)Glc6S": {"target": "Gal3S(b1-4)Glc6S", "summary_of_the_method": "as §1"}, "Gal3S(b1-4)GlcNAc": {"target": "Gal3S(b1-4)GlcNAc", "summary_of_the_method": "as §1"}, "Gal3S(b1-4)GlcNAc6S": {"target": "Gal3S(b1-4)GlcNAc6S", "summary_of_the_method": "as §1"}, "[15]": {"target": "Gal3S(b1-4)[Fuc(a1-3)]Glc6S", "summary_of_the_method": "as §1"}, "[16]": {"target": "Gal3S(b1-4)[Fuc(a1-3)]GlcNAc", "summary_of_the_method": "as §1"}, "[17]": {"target": "Gal3S(b1-4)[Fuc(a1-3)]GlcNAc6S", "summary_of_the_method": "as §1"}, "Gal3S4S(b1-4)GlcNAc": {"target": "Gal3S4S(b1-4)GlcNAc", "summary_of_the_method": "as §1"}, "Gal3S6S(b1-4)GlcNAc": {"target": "Gal3S6S(b1-4)GlcNAc", "summary_of_the_method": "as §1"}, "Gal3S6S(b1-4)GlcNAc6S": {"target": "Gal3S6S(b1-4)GlcNAc6S", "summary_of_the_method": "as §1"}, "Gal4S(b1-4)GlcNAc": {"target": "Gal4S(b1-4)GlcNAc", "summary_of_the_method": "as §1"}, "Gal4S6S(b1-4)GlcNAc": {"target": "Gal4S6S(b1-4)GlcNAc", "summary_of_the_method": "as §1"}, "Gal6P(b1-4)GlcNAc": {"target": "Gal6P(b1-4)GlcNAc", "summary_of_the_method": "as §1"}, "Gal6S(b1-3)GlcNAc": {"target": "Gal6S(b1-3)GlcNAc", "summary_of_the_method": "as §1"}, "Gal6S(b1-3)GlcNAc6S": {"target": "Gal6S(b1-3)GlcNAc6S", "summary_of_the_method": "as §1"}, "Gal6S(b1-4)Glc": {"target": "Gal6S(b1-4)Glc", "summary_of_the_method": "as §1"}, "Gal6S(b1-4)Glc6S": {"target": "Gal6S(b1-4)Glc6S", "summary_of_the_method": "as §1"}, "Gal6S(b1-4)GlcNAc": {"target": "Gal6S(b1-4)GlcNAc", "summary_of_the_method": "as §1"}, "Gal6S(b1-4)GlcNAc6S": {"target": "Gal6S(b1-4)GlcNAc6S", "summary_of_the_method": "as §1"}, "GalNAc(a1-3)Gal": {"target": "GalNAc(a1-3)Gal", "summary_of_the_method": "as §1"}}, "note": "This is one part of the list.", "data": [{"binder": "Epa7 (Candida glabrata), Q6DTM6_CANGB (protein) MGSSHHHHHHSSGLVPRGSHMKDDYSSFLSNNNLGWTDPTEFPLGCSPNVTTPKNGLSMELYSYDLRKNGSYPCWDAAYLDPNYPRTGYKSHRLLAKVDGVTGNINFYYHATKGCTPEIDHLPASYNYPKPLTMTNFTMLLYGYFKPKVTGYHTFTISADDLLFVNFGAGNAFDCCKRESSADDFGNYQAYAVWGSQTAKDDLTVHLDAGLYYPIRIFFNNREYDAELSLTLKTESDSNPVIDFSDYFYSFDDTKDGCPGLVSYDTS", "values": [{"measurement": "glycan array binding signal (z-score)", "setting": "[1]", "value": -0.077}, {"measurement": "glycan array binding signal (z-score)", "setting": "[2]", "value": 1.37}, {"measurement": "glycan array binding signal (z-score)", "setting": "[3]", "value": -0.127}, {"measurement": "glycan array binding signal (z-score)", "setting": "[4]", "value": -0.212}, {"measurement": "glycan array binding signal (z-score)", "setting": "[5]", "value": -0.166}, {"measurement": "glycan array binding signal (z-score)", "setting": "[6]", "value": 0.111}, {"measurement": "glycan array binding signal (z-score)", "setting": "[7]", "value": 5.02}, {"measurement": "glycan array binding signal (z-score)", "setting": "[8]", "value": -0.135}, {"measurement": "glycan array binding signal (z-score)", "setting": "[9]", "value": 0.23}, {"measurement": "glycan array binding signal (z-score)", "setting": "[10]", "value": 0.622}, {"measurement": "glycan array binding signal (z-score)", "setting": "[11]", "value": 2.16}, {"measurement": "glycan array binding signal (z-score)", "setting": "[12]", "value": 5.53}, {"measurement": "glycan array binding signal (z-score)", "setting": "[13]", "value": 0.32}, {"measurement": "glycan array binding signal (z-score)", "setting": "Gal(b1-4)GlcNAc6P", "value": -0.236}, {"measurement": "glycan array binding signal (z-score)", "setting": "Gal(b1-6)Gal", "value": -0.036}, {"measurement": "glycan array binding signal (z-score)", "setting": "Gal3S(b1-3)GalNAc", "value": -0.248}, {"measurement": "glycan array binding signal (z-score)", "setting": "Gal3S(b1-3)GlcNAc", "value": -0.245}, {"measurement": "glycan array binding signal (z-score)", "setting": "[14]", "value": -0.235}, {"measurement": "glycan array binding signal (z-score)", "setting": "Gal3S(b1-4)Glc", "value": -0.252}, {"measurement": "glycan array binding signal (z-score)", "setting": "Gal3S(b1-4)Glc6S", "value": -0.248}, {"measurement": "glycan array binding signal (z-score)", "setting": "Gal3S(b1-4)GlcNAc", "value": -0.251}, {"measurement": "glycan array binding signal (z-score)", "setting": "Gal3S(b1-4)GlcNAc6S", "value": -0.273}, {"measurement": "glycan array binding signal (z-score)", "setting": "[15]", "value": -0.09}, {"measurement": "glycan array binding signal (z-score)", "setting": "[16]", "value": -0.23}, {"measurement": "glycan array binding signal (z-score)", "setting": "[17]", "value": -0.235}, {"measurement": "glycan array binding signal (z-score)", "setting": "Gal3S4S(b1-4)GlcNAc", "value": -0.237}, {"measurement": "glycan array binding signal (z-score)", "setting": "Gal3S6S(b1-4)GlcNAc", "value": -0.25}, {"measurement": "glycan array binding signal (z-score)", "setting": "Gal3S6S(b1-4)GlcNAc6S", "value": -0.233}, {"measurement": "glycan array binding signal (z-score)", "setting": "Gal4S(b1-4)GlcNAc", "value": -0.253}, {"measurement": "glycan array binding signal (z-score)", "setting": "Gal4S6S(b1-4)GlcNAc", "value": -0.247}, {"measurement": "glycan array binding signal (z-score)", "setting": "Gal6P(b1-4)GlcNAc", "value": -0.241}, {"measurement": "glycan array binding signal (z-score)", "setting": "Gal6S(b1-3)GlcNAc", "value": -0.215}, {"measurement": "glycan array binding signal (z-score)", "setting": "Gal6S(b1-3)GlcNAc6S", "value": -0.215}, {"measurement": "glycan array binding signal (z-score)", "setting": "Gal6S(b1-4)Glc", "value": -0.227}, {"measurement": "glycan array binding signal (z-score)", "setting": "Gal6S(b1-4)Glc6S", "value": 0.137}, {"measurement": "glycan array binding signal (z-score)", "setting": "Gal6S(b1-4)GlcNAc", "value": -0.237}, {"measurement": "glycan array binding signal (z-score)", "setting": "Gal6S(b1-4)GlcNAc6S", "value": -0.189}, {"measurement": "glycan array binding signal (z-score)", "setting": "GalNAc(a1-3)Gal", "value": -0.252}]}]}
